Experimental data as given in publication PMC6078952.
No constants are given. Whether binding was seen depends on the method and setting. Some binding calls cover weakened binding; strength is not graded here.

By UniProt entry, the sequences of proteins in these tests, tags left out. Where a name states a change or a piece, a line headed by the entry shows the natural chain unless it says otherwise. Chains listed by the source or under a name are the forms on record and can include a tag or linker.
Lysyl oxidase propeptide (LOX-PP) (Pro24Leu) (P28300, form named): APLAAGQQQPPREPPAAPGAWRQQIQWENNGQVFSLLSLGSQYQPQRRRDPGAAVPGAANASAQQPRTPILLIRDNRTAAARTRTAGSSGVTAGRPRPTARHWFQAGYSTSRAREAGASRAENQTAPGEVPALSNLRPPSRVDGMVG
UniProt P02452: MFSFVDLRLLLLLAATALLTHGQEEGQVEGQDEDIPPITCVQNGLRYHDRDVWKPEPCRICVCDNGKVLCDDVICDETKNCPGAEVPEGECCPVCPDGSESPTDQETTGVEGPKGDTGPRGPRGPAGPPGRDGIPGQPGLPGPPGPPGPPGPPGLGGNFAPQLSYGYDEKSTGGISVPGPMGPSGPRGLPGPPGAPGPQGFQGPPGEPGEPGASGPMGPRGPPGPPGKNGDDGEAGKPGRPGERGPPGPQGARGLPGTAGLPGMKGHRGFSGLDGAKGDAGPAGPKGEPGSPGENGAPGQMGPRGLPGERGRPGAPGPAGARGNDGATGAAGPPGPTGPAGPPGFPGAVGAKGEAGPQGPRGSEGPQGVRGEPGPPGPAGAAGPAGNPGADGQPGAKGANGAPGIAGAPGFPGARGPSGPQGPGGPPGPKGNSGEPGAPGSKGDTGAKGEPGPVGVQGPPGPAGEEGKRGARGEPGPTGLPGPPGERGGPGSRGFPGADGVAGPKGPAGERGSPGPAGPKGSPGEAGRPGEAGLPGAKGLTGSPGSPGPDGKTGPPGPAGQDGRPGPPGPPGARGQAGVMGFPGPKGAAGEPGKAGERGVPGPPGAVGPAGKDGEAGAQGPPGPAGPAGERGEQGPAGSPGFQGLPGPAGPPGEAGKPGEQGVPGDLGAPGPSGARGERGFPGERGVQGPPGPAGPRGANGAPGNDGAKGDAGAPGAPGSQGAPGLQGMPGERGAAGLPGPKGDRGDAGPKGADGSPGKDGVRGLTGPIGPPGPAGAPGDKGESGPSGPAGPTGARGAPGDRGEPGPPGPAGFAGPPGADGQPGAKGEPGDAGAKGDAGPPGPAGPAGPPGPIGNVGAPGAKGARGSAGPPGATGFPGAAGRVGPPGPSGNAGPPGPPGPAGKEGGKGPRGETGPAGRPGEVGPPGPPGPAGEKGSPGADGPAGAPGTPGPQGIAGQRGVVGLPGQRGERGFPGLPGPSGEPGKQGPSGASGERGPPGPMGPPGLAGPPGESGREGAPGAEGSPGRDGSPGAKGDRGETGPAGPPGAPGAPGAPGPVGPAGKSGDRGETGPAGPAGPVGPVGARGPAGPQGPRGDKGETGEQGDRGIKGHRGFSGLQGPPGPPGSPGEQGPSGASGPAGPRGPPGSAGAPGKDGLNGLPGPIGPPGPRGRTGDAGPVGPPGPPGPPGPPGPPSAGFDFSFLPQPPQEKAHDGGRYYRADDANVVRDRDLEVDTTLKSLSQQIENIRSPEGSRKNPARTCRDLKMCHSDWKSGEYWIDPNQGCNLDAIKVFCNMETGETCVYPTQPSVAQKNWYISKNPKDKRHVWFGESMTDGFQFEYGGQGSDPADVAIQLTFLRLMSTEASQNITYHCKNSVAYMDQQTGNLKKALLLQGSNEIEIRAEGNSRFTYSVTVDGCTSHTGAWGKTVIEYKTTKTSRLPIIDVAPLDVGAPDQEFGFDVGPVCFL

Biological target: Lysyl oxidase propeptide (LOX-PP) (Pro24Leu) (human) (UniProt P28300)
Test: SPR; Biacore T100 or T200: LOX-PP as ligand, covalently immobilised on a CM5 chip via amino groups; partner injected as analyte at 30 µl/min for 3 min; HBS pH 7.4 with 0.05% P20, 25 °C; both purified

binding: binds
Substance: Collagen I (from UniProt P02452 162-1218; P08123 80-1119) (complex)
